In the supplement of paper PMC4967469:

Tests used:
Test in all cases: Viability of human cancer cell lines after 72 h of drug (GDSC screen)
CMK = compound: Cc1ccc(-c2c(C(=O)CCl)n(CCCO)c3ncnc(N)c23)cc1 [CMK]; conditions: top dose 4 µM; top dose inferred
Experimental: (§1)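 Human cancer cell lines in 384-well plates, medium with 10% serum, drug for 72 h over a 256-fold dose range (nine 2-fold or five 4-fold steps up to the top dose). Adherent lines were fixed and stained with the nucleic acid dye Syto60, suspension lines read with resazurin; signal relative to control wells, capped at 0 and 100%. One two-parameter sigmoid per drug and line, fitted in a mixed model over all curves with the slope shared within a line.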

ABT-888 = compound: C[C@]1(c2nc3c(C(N)=O)cccc3[nH]2)CCCN1 [ABT-888]; conditions: top dose 5 µM; top dose inferred
Experimental: as §1

Zibotentan = compound: COc1nc(C)cnc1NS(=O)(=O)c1cccnc1-c1ccc(-c2nnco2)cc1 [Zibotentan]; conditions: top dose 20 µM; top dose inferred
Experimental: as §1

Cytarabine = compound: Nc1ccn([C@@H]2O[C@H](CO)[C@@H](O)[C@@H]2O)c(=O)n1 [Cytarabine]; conditions: top dose 2 µM
Experimental: as §1

QL-X-138 = compound: C=CC(=O)Nc1cc(-n2c(=O)ccc3cnc4ccc(-c5cn[nH]c5)cc4c32)ccc1C [QL-X-138]; conditions: top dose 10.24 µM; top dose inferred
Experimental: as §1

CP466722 = compound: COc1cc2ncnc(-n3nc(-c4ccccn4)nc3N)c2cc1OC [CP466722]; conditions: top dose 16 µM; top dose inferred
Experimental: as §1

(5Z)-7-Oxozeaenol = compound: COc1cc(O)c2c(c1)/C=C/C[C@H](O)[C@H](O)C(=O)/C=C\C[C@H](C)OC2=O [(5Z)-7-Oxozeaenol]; conditions: top dose 10 µM; top dose inferred
Experimental: as §1

Thapsigargin = compound: C/C=C(/C)C(=O)O[C@H]1C(C)=C2[C@H]([C@@H]1OC(=O)CCCCCCC)[C@@](C)(OC(C)=O)C[C@H](OC(=O)CCC)[C@@]1(O)[C@H]2OC(=O)[C@@]1(C)O [Thapsigargin]; conditions: top dose 0.512 µM; top dose inferred
Experimental: as §1

MPS-1-IN-1 = compound: COc1cc(N2CCC(O)CC2)ccc1Nc1cc(Nc2ccccc2S(=O)(=O)C(C)C)c2cc[nH]c2n1 [MPS-1-IN-1]; conditions: top dose 20 µM; top dose inferred
Experimental: as §1

KU-55933 = compound: O=c1cc(-c2cccc3c2Sc2ccccc2S3)oc(N2CCOCC2)c1 [KU-55933]; conditions: top dose 10 µM
Experimental: as §1

CHIR-99021 = compound: Cc1cnc(-c2cnc(NCCNc3ccc(C#N)cn3)nc2-c2ccc(Cl)cc2Cl)[nH]1 [CHIR-99021]
Experimental: as §1

GSK269962A = compound: CCn1c(-c2nonc2N)nc2cnc(Oc3cccc(NC(=O)c4ccc(OCCN5CCOCC5)cc4)c3)cc21 [GSK269962A]; conditions: top dose inferred
Experimental: as §1

ABT-869 = compound: Cc1ccc(F)c(NC(=O)Nc2ccc(-c3cccc4[nH]nc(N)c34)cc2)c1 [ABT-869]; conditions: top dose 1.024 µM; top dose inferred
Experimental: as §1

[1] = top dose 2.56 µM, screen: GDSC drug entry 154
[2] = top dose 10 µM, screen: GDSC drug entry 1241, top dose inferred
[3] = top dose 2.5 µM, screen: GDSC drug entry 127
[4] = top dose 5 µM, screen: GDSC drug entry 1192

| Cell Line | AUC (CMK) | IC50 (CMK) [µM] | AUC (ABT-888) | IC50 (ABT-888) [µM] | AUC (Zibotentan) | IC50 (Zibotentan) [µM] | AUC (Cytarabine) | IC50 (Cytarabine) [µM] | AUC (QL-X-138) | IC50 (QL-X-138) [µM] | AUC (CP466722) | IC50 (CP466722) [µM] | AUC ((5Z)-7-Oxozeaenol) | IC50 ((5Z)-7-Oxozeaenol) [µM] | AUC (Thapsigargin) | IC50 (Thapsigargin) [µM] | AUC (MPS-1-IN-1) | IC50 (MPS-1-IN-1) [µM] | AUC (KU-55933) | IC50 (KU-55933) [µM] | AUC (CHIR-99021; [1]) | IC50 (CHIR-99021; [1]) [µM] | AUC (CHIR-99021; [2]) | IC50 (CHIR-99021; [2]) [µM] | AUC (GSK269962A; [3]) | IC50 (GSK269962A; [3]) [µM] | AUC (GSK269962A; [4]) | IC50 (GSK269962A; [4]) [µM] | AUC (ABT-869) | IC50 (ABT-869) [µM] |
| --- | --- | --- | --- | --- | --- | --- | --- | --- | --- | --- | --- | --- | --- | --- | --- | --- | --- | --- | --- | --- | --- | --- | --- | --- | --- | --- | --- | --- | --- | --- |
| JiyoyeP-2003 (Burkitt lymphoma, suspension) | 0.871 | 3 | 0.983 | > 5 | 0.982 | > 20 | 0.985 | > 2 | 0.836 | 5.65 | 0.937 | > 16 | 0.888 | 8.87 | 0.266 | 0.00762 | 0.855 | 12.9 | 0.96 | > 10 | 0.97 | > 2.56 | 0.987 | > 10 | 0.981 | > 2.5 | 0.981 | > 5 | 0.99 | > 1.02 |
| K5 (thyroid, adherent) | 0.941 | > 4 | 0.976 | > 5 | 0.981 | > 20 | 0.349 | 0.0487 | 0.809 | 5.07 | 0.85 | 11.3 | 0.066 | < 0.0391 | 0.859 | 0.397 | 0.966 | > 20 | 0.969 | > 10 | 0.954 | > 2.56 | 0.854 | 7.4 | 0.894 | > 2.5 | 0.821 | 2.73 | 0.986 | > 1.02 |
| KARPAS-45 (lymphoblastic leukaemia, suspension) | 0.936 | > 4 | 0.989 | > 5 | 0.989 | > 20 | 0.968 | > 2 | 0.689 | 1.95 | 0.46 | 0.791 | 0.815 | 4.38 | 0.281 | 0.0087 | 0.821 | 9.19 | 0.865 | 6.47 | 0.992 | > 2.56 | 0.991 | > 10 | 0.883 | 1.92 | 0.884 | 3.86 | 0.982 | > 1.02 |
| KARPAS-299 (anaplastic large cell lymphoma, suspension) | 0.977 | > 4 | 0.984 | > 5 | 0.989 | > 20 | 0.88 | 1.48 | 0.841 | 5.45 | 0.782 | 5.55 | 0.703 | 2.08 | 0.544 | 0.0412 | 0.489 | 1.17 | 0.971 | > 10 | 0.979 | > 2.56 | 0.987 | > 10 | 0.967 | > 2.5 | 0.953 | > 5 | 0.992 | > 1.02 |
| KARPAS-422 (B-cell lymphoma, suspension) | 0.915 | > 4 | 0.988 | > 5 | 0.984 | > 20 | 0.969 | > 2 | 0.498 | 0.632 | 0.954 | > 16 | 0.802 | 4.83 | 0.475 | 0.0274 | 0.919 | > 20 | 0.89 | > 10 | 0.988 | > 2.56 | 0.987 | > 10 | 0.965 | > 2.5 | 0.953 | > 5 | 0.988 | > 1.02 |
| KARPAS-620 (haematopoietic neoplasm, suspension) | 0.88 | 3.14 | 0.991 | > 5 | 0.991 | > 20 | 0.99 | > 2 | 0.389 | 0.332 | 0.625 | 2.09 | 0.666 | 1.68 | 0.088 | < 0.002 | 0.869 | 14.1 | 0.964 | > 10 | 0.99 | > 2.56 | 0.977 | > 10 |  |  | 0.93 | > 5 | 0.99 | > 1.02 |
| KCL-22 (chronic myeloid leukaemia, suspension) | 0.88 | 3 | 0.991 | > 5 | 0.989 | > 20 | 0.727 | 0.486 | 0.412 | 0.383 | 0.691 | 3.1 | 0.692 | 1.95 | 0.353 | 0.0135 | 0.915 | > 20 | 0.965 | > 10 | 0.988 | > 2.56 | 0.974 | > 10 | 0.987 | > 2.5 | 0.955 | > 5 | 0.952 | > 1.02 |
| KE-37 (lymphoblastic leukaemia, suspension) | 0.981 | > 4 | 0.992 | > 5 | 0.99 | > 20 | 0.269 | 0.0334 | 0.358 | 0.288 | 0.441 | 0.719 | 0.85 | 5.01 | 0.251 | 0.00768 | 0.865 | 11.2 | 0.959 | > 10 | 0.988 | > 2.56 | 0.85 | 4.99 | 0.938 | > 2.5 | 0.946 | > 5 | 0.993 | > 1.02 |
| KELLY (neuroblastoma, adherent) | 0.989 | > 4 | 0.989 | > 5 | 0.974 | > 20 | 0.66 | 0.332 | 0.923 | > 10.2 | 0.798 | 6.83 | 0.575 | 0.982 | 0.483 | 0.0289 | 0.653 | 3.19 | 0.945 | > 10 | 0.989 | > 2.56 | 0.88 | 8.71 | 0.926 | > 2.5 | 0.446 | 0.225 | 0.974 | > 1.02 |

By IC50 is meant the dose at which the fit gives 50% viability; a fit beyond the top or the lowest dose is shown as a bound at that dose. AUC is the area under the same curve over the 256-fold range up to the top dose, as a fraction: 1 means no effect, lower means more sensitive. For some of these results: An inferred top dose was calculated from the reported fits. For some of these results: Drugs with an entry number were screened twice under separate entries, and the two screens often disagree.
